# ± gives the standard deviation of the averaged measurements. The full ranking holds about 4,100 sequences; the median of “relative kcat/Km (krel) vs genomic leader AAAGAU” is about 1.7, and the highest 2% start at about 6.5. This is a selection; strong and weak results do not stand in their true shares.
# Target: T1, E. coli RNase P holoenzyme (M1 P RNA + rnpA protein) (UniProt P0A7Y8)
# T1 sequence: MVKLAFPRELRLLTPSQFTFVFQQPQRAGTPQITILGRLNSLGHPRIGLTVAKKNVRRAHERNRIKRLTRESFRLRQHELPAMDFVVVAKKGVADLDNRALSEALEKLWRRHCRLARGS
# Assay: relative kcat/Km (krel) vs genomic leader AAAGAU (relative (reference leader = 1)); higher = faster RNase P cleavage
# Experimental: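 HTS-Kin: a pool of ptRNA-Met (21C construct) with all 4096 combinations of 5' leader nucleotides N(-6) to N(-1) was processed in vitro by E. coli RNase P (P RNA + rnpA/C5 protein) under multiple-turnover conditions at 37 C, pH 8, 17.5 mM MgCl2. Residual substrate was Illumina-sequenced at several fractions reacted, and relative kcat/Km (krel) was computed by internal competition kinetics, calibrated to the genomic leader (AAAGAU = 1). The listed hexamer is the varied N(-6)..N(-1) leader (DNA letters), and it sits between a fixed 5' stem-loop flank (GCAUGCACGAAAGUGCGUGCUAUGAA) and the mature tRNA-Met starting GGCUACGUAGCUCAGUUGG. Two technical replicates are averaged.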
# [1] = fraction of substrate reacted: ~26-29% (28.66% repeat 1, 26.4% repeat 2)
# [2] = fraction of substrate reacted: ~9-10% (9.79% repeat 1, 9.1% repeat 2)
# [3] = fraction of substrate reacted: ~13-16% (15.68% repeat 1, 13.17% repeat 2)
Sequence,relative kcat/Km [1],relative kcat/Km [2],relative kcat/Km [3]
TGCCGG,0.718 ± 0.11,–,–
CGCGGA,1.41 ± 0.58,1.5 ± 1.2,1.39 ± 0.29
GTTAAC,4.84 ± 1.6,3.21 ± 1.1,3.47 ± 0.18
CGGCGA,1.36 ± 0.19,1.47 ± 0.21,1.16 ± 0.3
CTTGCG,0.729 ± 0.19,–,–
TTACTT,3.42 ± 1.6,2.24 ± 1.1,2.21 ± 0.15
GCCGAT,2.69 ± 0.74,1.96 ± 0.66,1.9 ± 0.9
CGAAAG,1.64 ± 0.03,1.8 ± 1.7,0.89 ± 0.88
CTAGCG,0.491 ± 0.019,–,–
AGATAC,5.84 ± 2.6,3.55 ± 1.8,3.83 ± 0.48
TAAAGC,2.77 ± 1.1,2.12 ± 0.83,2.48 ± 0.17
TAGCGA,2.83 ± 1,2.91 ± 2.3,2.5 ± 0.29
CAGCTT,2.33 ± 0.38,2.22 ± 1.1,1.55 ± 0.38
CCCGTG,1.07 ± 0.64,0.509 ± 0.028,–
AGTGCA,1.74 ± 0.072,1.79 ± 1.6,1.47 ± 0.1
GTCGAA,8.71 ± 2.8,4.23 ± 1.8,5.6 ± 0.65
GTCCAG,5.48 ± 2,2.58 ± 1,2.9 ± 0.5
GTGTCA,1.49 ± 0.16,1.15 ± 0.97,0.779 ± 0.57
GAAGGA,1.11 ± 0.87,–,–
TCGCTG,1.37 ± 0.99,–,–
GGTTGA,2.01 ± 0.83,1.13 ± 0.057,1.16 ± 0.42
CTTTCA,2.86 ± 0.99,2.49 ± 1.1,2.19 ± 0.62
AGGGGC,1.32 ± 0.94,–,–

Sequence,relative kcat/Km [1],relative kcat/Km [2],relative kcat/Km [3]
GTGTAG,1.71 ± 0.18,–,–
GAAATC,1.2 ± 0.25,0.5 ± 0.22,1.03 ± 0.073
GCTCAT,2.74 ± 0.71,1.68 ± 0.42,1.68 ± 0.55
TTCACC,8.13 ± 3,3.91 ± 1.2,5.63 ± 0.6
GTCGGA,1.51 ± 1.2,–,1.67 ± 1.1
ATGTTG,0.642 ± 0.16,–,–
CTAAAT,3.31 ± 0.94,2.52 ± 1,2.65 ± 0.47
CCCAAA,5.25 ± 1.7,3.49 ± 1.1,3.56 ± 0.29
GCGACT,0.962 ± 0.14,1.1 ± 0.32,0.524 ± 0.19
TTCATA,8.54 ± 3.2,4.76 ± 2.5,6.15 ± 0.55
TACTGA,5.98 ± 2.2,3.12 ± 0.15,4.47 ± 1.6
TTAACC,1.59 ± 0.1,–,1.35 ± 0.042
GGGGAG,0.768 ± 0.06,–,–
CCGAGA,2.53 ± 1,–,1.76 ± 1.6
TTTGCC,2.42 ± 0.16,1.81 ± 0.95,1.79 ± 0.37
CGGGAC,1.3 ± 0.081,1.65 ± 1.2,1.46 ± 0.34
ATTCAT,5.56 ± 2.2,2.95 ± 1.6,3.71 ± 0.32
GGTCCC,1.2 ± 0.051,0.843 ± 0.49,0.971 ± 0.18
CCCTAA,–,3.68 ± 0.17,4.41 ± 1.4
CAAGGC,0.702 ± 0.41,–,–
GTACCG,1.02 ± 0.44,–,–
TGATCC,3.26 ± 1.2,2.04 ± 0.87,2.73 ± 0.15
AGCTGT,1.37 ± 1.3,1.29 ± 0.36,1.23 ± 1.1

Sequence,relative kcat/Km [1],relative kcat/Km [2],relative kcat/Km [3]
CGTAGA,5.26 ± 1.7,2.87 ± 1.5,3.11 ± 0.054
AACTAT,6.43 ± 3.1,3.41 ± 0.78,4.44 ± 0.83
CGGCAT,1.44 ± 0.48,1.21 ± 0.2,1.34 ± 0.02
TTATCC,3.66 ± 1.5,2.58 ± 0.95,2.79 ± 0.23
TGATCG,2.2 ± 0.42,–,0.747 ± 0.12
TTGGCT,1.04 ± 0.94,–,0.912 ± 0.62
TTCACT,7.57 ± 3.1,4.07 ± 1.2,5.27 ± 1.4
CGTTCG,1.651 ± 0.0032,1.02 ± 0.66,–
GGTAGC,2.88 ± 1.1,1.74 ± 0.093,1.36 ± 0.45
GAATGG,0.867 ± 0.12,0.451 ± 0.32,–
CTTGAC,4.06 ± 0.98,2.3 ± 0.27,3.13 ± 1.7
CTTTTC,3.02 ± 0.83,1.94 ± 0.99,1.89 ± 0.45
CATCGC,5.21 ± 1.9,2.84 ± 0.85,3.69 ± 0.25
GTGCTG,0.51 ± 0.48,–,–
TAGTTG,1.33 ± 0.37,–,–
GTTCGG,0.742 ± 0.18,–,–
TGCTCG,1.71 ± 0.051,0.457 ± 0.37,–
AGATTC,3.74 ± 1.6,2.65 ± 0.82,2.57 ± 0.67
AAAATG,0.793 ± 0.38,–,–
GTTAAG,2.65 ± 0.77,–,1.6 ± 0.16
TTTTAG,4.51 ± 1.2,3.3 ± 2.5,2.5 ± 0.78
CTTAGA,4.79 ± 1.7,3.03 ± 0.85,3.18 ± 0.44
AACTCC,4.38 ± 1.3,3 ± 2.2,3.3 ± 0.49

Sequence,relative kcat/Km [1],relative kcat/Km [2],relative kcat/Km [3]
TCAGCG,0.852 ± 0.32,–,–
AATAAC,3.66 ± 1.1,2.46 ± 1.3,2.86 ± 0.11
CCGTTC,3.54 ± 0.68,2.74 ± 1.7,2.34 ± 0.28
GACTCA,5.69 ± 2.1,3.33 ± 1.5,4.56 ± 0.1
GTTATT,3.9 ± 1.9,1.78 ± 0.16,2.68 ± 0.28
ATTTTA,3.11 ± 1.1,2.22 ± 0.48,2.43 ± 0.12
AGGGAG,0.775 ± 0.073,–,–
CAGGCG,–,0.776 ± 0.41,–
GTAGAT,2.1 ± 0.79,1.19 ± 0.47,1.41 ± 0.04
TACGAT,3.63 ± 1.5,2.93 ± 1.5,2.79 ± 0.68
TGGCAT,1.26 ± 0.7,–,–
CTCACT,5.38 ± 1.7,3.55 ± 1.3,3.5 ± 0.33
TGACCT,2.09 ± 0.76,1.91 ± 0.94,1.72 ± 0.11
AACGAT,1.68 ± 0.58,1.34 ± 0.68,1.53 ± 0.49
ACGAAC,3.33 ± 1.3,2.86 ± 1.4,2.57 ± 0.6
GGCTCG,1.597 ± 0.0082,1.09 ± 0.45,0.455 ± 0.17
CTTACC,2.28 ± 0.67,1.75 ± 0.076,1.78 ± 0.38
CGACCT,2.11 ± 0.77,1.28 ± 0.024,1.86 ± 0.38
TCTGTC,2.09 ± 0.85,1.29 ± 0.12,1.05 ± 0.53
GCCCGC,4.32 ± 1.4,2.491 ± 0.012,2.89 ± 1.8
GACCAG,3.13 ± 0.57,–,0.798 ± 0.15
AGGATC,1.18 ± 0.84,0.543 ± 0.0099,1.07 ± 0.2
ACAGTC,1.71 ± 0.69,1.18 ± 0.77,1.42 ± 0.41

Sequence,relative kcat/Km [1],relative kcat/Km [2],relative kcat/Km [3]
GCTCAA,1.88 ± 0.14,1.41 ± 0.98,1.24 ± 0.71
TGAAGG,0.667 ± 0.34,0.0917 ± 0.075,–
GGAGAT,2.1 ± 0.62,1.79 ± 0.18,1.53 ± 0.24
TAGTGA,3.06 ± 1.1,1.59 ± 0.54,1.54 ± 0.78
ATCTAG,5.72 ± 2.4,2.49 ± 0.96,3.16 ± 1
GAATGA,4.36 ± 1.5,2.12 ± 0.48,3.32 ± 1.1
GGATAG,2.68 ± 0.8,1.13 ± 0.12,1.11 ± 0.16
ACACTC,2.74 ± 0.89,1.93 ± 1.6,1.9 ± 0.66
CGCATG,1.43 ± 0.34,–,–
AATATT,2.97 ± 1.1,2.25 ± 1.6,2.08 ± 0.12
ATTACG,1.45 ± 0.32,–,–
ATCAAG,3.87 ± 0.91,–,1.96 ± 0.14
AAGTTA,2.63 ± 1.1,1.8 ± 0.12,2.04 ± 0.28
TAGCAA,3.82 ± 1.1,3.45 ± 2.1,2.89 ± 0.52
GGTGCT,0.728 ± 0.13,0.671 ± 0.2,–
CACGAC,7.35 ± 3,3.62 ± 0.058,5.56 ± 2.7
TTTCCA,1.96 ± 0.23,2.16 ± 1.9,1.53 ± 0.7
GGAGAG,1.19 ± 0.14,–,–
ATACAG,1.55 ± 0.32,–,0.502 ± 0.011
TGTAAT,5.46 ± 2.6,2.34 ± 0.17,3.51 ± 0.42
CCTCAC,4.22 ± 1.2,2.54 ± 0.75,3.07 ± 0.55
CCTGCA,1.72 ± 0.075,2.11 ± 2.1,1.19 ± 0.28
CATATG,2.03 ± 0.046,–,0.7 ± 0.15

Sequence,relative kcat/Km [1],relative kcat/Km [2],relative kcat/Km [3]
GTACTC,2.74 ± 0.8,2.13 ± 1.3,2.3 ± 0.072
CACCGC,5.89 ± 2.7,2.34 ± 0.56,3.87 ± 1.6
CGAGGT,1.41 ± 1.2,–,–
CCCGAA,6.76 ± 2.5,2.83 ± 1.5,4.35 ± 1.8
TCCAAT,6.63 ± 2.2,3.48 ± 2.1,4.14 ± 0.76
TAGATT,3.32 ± 1.5,1.8 ± 0.39,2.38 ± 0.32
AACGAG,2.41 ± 0.57,–,1.42 ± 0.15
TAATAC,6.42 ± 2.7,3.99 ± 2.4,4.78 ± 0.74
GAGTGC,1.47 ± 0.14,1.03 ± 0.13,1.33 ± 0.72
CATTTT,4.88 ± 2.1,2.65 ± 1.1,3.21 ± 1.1
TCAGTG,0.958 ± 0.53,–,–
AAGGGC,–,0.68 ± 0.22,–
AGTGAT,1.1 ± 0.13,1.12 ± 0.52,1.2 ± 0.46
GCGATG,1.2 ± 0.27,–,–
ATGTGA,2.33 ± 0.9,–,1.3 ± 0.95
TAAAAT,3.6 ± 1.6,2.3 ± 1,2.59 ± 0.13
GGACTA,1.3 ± 0.29,1.56 ± 0.44,–
CAGACC,1.97 ± 0.42,2.58 ± 1.8,1.99 ± 0.3
ACTATC,2.1 ± 0.46,1.58 ± 0.92,1.63 ± 0.33
TCTCTC,3.23 ± 1.1,2.46 ± 0.63,2.53 ± 0.076
CTCGGA,0.671 ± 0.41,–,–
TCGGGC,1.18 ± 0.74,–,–
